This is a selection; strong and weak results do not stand in their true shares. For some assays here: The list includes weakly bound sequences.

For 40 sequences, binding signal results are on record in PMC5700166.

Test in all cases: protein-binding microarray (PBM)
Common to all, as to settings: PBM: ~300 nM protein, 6 mM HEPES pH 7.8, 80 mM KCl, 0.5 mM EDTA, 0.5 mM EGTA, 6% glycerol, 35 ng/ul poly-dIdC, 1% milk, 1 h, room temperature; Ap Aiptasia and Nv Nematostella (sea anemones) / Co Capsaspora / Aq Amphimedon (sponge) / Dm Drosophila / Hu human; RHD is the Rel homology domain; high values mean tight binding; most listed sequences are background and not binding sites; double strand, one strand shown

The target of one assay is T1, GST-Ap-NF-kB RHD (UniProt A0A913YAJ5).
T1 sequence: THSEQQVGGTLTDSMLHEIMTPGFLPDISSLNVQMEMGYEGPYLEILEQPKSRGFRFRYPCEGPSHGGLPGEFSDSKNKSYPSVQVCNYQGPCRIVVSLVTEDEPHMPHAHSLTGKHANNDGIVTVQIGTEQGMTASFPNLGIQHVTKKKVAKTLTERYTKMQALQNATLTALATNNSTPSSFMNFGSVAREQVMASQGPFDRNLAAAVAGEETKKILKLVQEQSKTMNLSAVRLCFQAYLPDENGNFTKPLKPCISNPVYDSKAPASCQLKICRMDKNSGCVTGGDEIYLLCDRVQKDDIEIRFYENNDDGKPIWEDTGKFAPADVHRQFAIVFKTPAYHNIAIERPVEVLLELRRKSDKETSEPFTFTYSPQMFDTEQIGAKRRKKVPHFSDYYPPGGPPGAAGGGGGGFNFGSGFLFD

The target in the next assay is T2, GST-Dm-Relish (UniProt Q94527).
T2 sequence: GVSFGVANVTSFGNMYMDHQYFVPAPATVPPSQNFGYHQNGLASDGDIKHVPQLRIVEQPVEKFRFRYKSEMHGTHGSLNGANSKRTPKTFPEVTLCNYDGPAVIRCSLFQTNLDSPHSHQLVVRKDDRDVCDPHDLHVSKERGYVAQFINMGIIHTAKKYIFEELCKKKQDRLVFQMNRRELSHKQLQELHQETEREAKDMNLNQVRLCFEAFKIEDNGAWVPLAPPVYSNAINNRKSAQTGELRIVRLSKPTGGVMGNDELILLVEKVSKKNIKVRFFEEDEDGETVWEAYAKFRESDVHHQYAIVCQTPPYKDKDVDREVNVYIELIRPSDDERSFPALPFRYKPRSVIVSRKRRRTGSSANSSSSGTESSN

Assay [1] has as its target T3, GST-Nv-NF-kB (Cys allele) (UniProt E5G601).
T3 sequence: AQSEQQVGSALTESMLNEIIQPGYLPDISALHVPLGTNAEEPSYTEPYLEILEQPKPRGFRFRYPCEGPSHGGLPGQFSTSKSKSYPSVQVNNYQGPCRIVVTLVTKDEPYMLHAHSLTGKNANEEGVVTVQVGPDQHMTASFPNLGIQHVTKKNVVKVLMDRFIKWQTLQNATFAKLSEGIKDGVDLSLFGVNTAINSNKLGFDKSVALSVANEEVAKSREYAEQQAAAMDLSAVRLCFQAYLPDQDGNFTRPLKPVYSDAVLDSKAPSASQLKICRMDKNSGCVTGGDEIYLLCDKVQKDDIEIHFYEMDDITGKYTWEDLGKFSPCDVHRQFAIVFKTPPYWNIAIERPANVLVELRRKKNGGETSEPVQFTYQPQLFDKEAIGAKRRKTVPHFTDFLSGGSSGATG

The next assay concerns the target T4, GST-Co-NF-kB (UniProt F1ARL5).
T4 sequence: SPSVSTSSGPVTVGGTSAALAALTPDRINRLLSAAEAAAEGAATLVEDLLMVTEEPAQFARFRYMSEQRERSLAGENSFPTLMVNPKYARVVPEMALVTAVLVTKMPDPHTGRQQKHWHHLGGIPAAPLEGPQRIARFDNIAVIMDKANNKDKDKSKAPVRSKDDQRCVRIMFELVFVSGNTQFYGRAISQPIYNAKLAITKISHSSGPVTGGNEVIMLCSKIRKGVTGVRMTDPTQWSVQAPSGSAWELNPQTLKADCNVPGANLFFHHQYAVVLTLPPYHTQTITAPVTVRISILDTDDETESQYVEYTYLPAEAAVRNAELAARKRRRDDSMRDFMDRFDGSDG

Take “CCGATTAACATCACTTCGGGAAATGATGTTAATCGGGTCTTGATTCGCTTGACGCTGCTG”: the binding signal was 0.969 z-score with GST-Ap-NF-kB RHD and 0.577 z-score with GST-Dm-Relish.
Consider “CCGATTAACATCATTCCCGGAAATGATGTTAATCGGGTCTTGATTCGCTTGACGCTGCTG”, for which the binding signal with GST-Ap-NF-kB RHD amounted to 0.905 z-score; with GST-Dm-Relish, 1.05 z-score.
Regarding “CCGATTAACATCACTTGGGAAACTGATGTTAATCGGGTCTTGATTCGCTTGACGCTGCTG”, the binding signal is 1.38 z-score in the assay with GST-Ap-NF-kB RHD and 1.01 z-score with GST-Dm-Relish.
With “CCGATTAACATCAGGGAAAAGGATGATGTTAATCGGGTCTTGATTCGCTTGACGCTGCTG”, the binding signal with GST-Ap-NF-kB RHD was 1.79 z-score; with GST-Dm-Relish, -0.321 z-score.
Take “CCGATTAACATCAGGGAATTGCATGATGTTAATCGGGTCTTGATTCGCTTGACGCTGCTG”: the binding signal with GST-Ap-NF-kB RHD is 2.48 z-score; in the assay with GST-Dm-Relish, 1.11 z-score.
Take “CCGATTAACATCAGGGAATTCACTGATGTTAATCGGGTCTTGATTCGCTTGACGCTGCTG”: the binding signal with GST-Ap-NF-kB RHD is 4.74 z-score; in the assay with GST-Dm-Relish, 8.25 z-score.
As for “CCGATTAACATCAGGGAACTCCATGATGTTAATCGGGTCTTGATTCGCTTGACGCTGCTG”, the binding signal in the assay with GST-Ap-NF-kB RHD worked out at 2.66 z-score; with GST-Dm-Relish it was 6.21 z-score.
As for “CCGATTAACATCAGTGGGAAAAATGATGTTAATCGGGTCTTGATTCGCTTGACGCTGCTG”, the binding signal was 2.21 z-score with GST-Ap-NF-kB RHD and 0.998 z-score in the assay with GST-Dm-Relish.
Regarding “CCGATTAACATCAACCATTCCCCTGATGTTAATCGGGTCTTGATTCGCTTGACGCTGCTG”, the binding signal worked out at 5.66 z-score in the assay with GST-Ap-NF-kB RHD and 1.96 z-score with GST-Dm-Relish.
For “CCGATTAACATCACGGGAACTCCTGATGTTAATCGGGTCTTGATTCGCTTGACGCTGCTG” the same measures were 3.24 z-score and 6.49 z-score.
In the case of “CCGATTAACATCATGGGTGGGAATGATGTTAATCGGGTCTTGATTCGCTTGACGCTGCTG”, the binding signal with GST-Ap-NF-kB RHD is 1.4 z-score; with GST-Dm-Relish, 1.66 z-score.
For the sequence “CCGATTAACATCAGGGGAGTCCATGATGTTAATCGGGTCTTGATTCGCTTGACGCTGCTG”, the binding signal with GST-Ap-NF-kB RHD came to 6.16 z-score; with GST-Dm-Relish it was 6.79 z-score.
“CCGATTAACATCAGGGGGACTACTGATGTTAATCGGGTCTTGATTCGCTTGACGCTGCTG”: the binding signal with GST-Ap-NF-kB RHD came out at 6.49 z-score; with GST-Dm-Relish, 6.39 z-score.
Regarding “CCGATTAACATCAATCGGGAAATTGATGTTAATCGGGTCTTGATTCGCTTGACGCTGCTG”, the binding signal with GST-Ap-NF-kB RHD is 1.3 z-score; with GST-Dm-Relish, 0.6 z-score.
Consider “CCGATTAACATCAAACTGGGAAATGATGTTAATCGGGTCTTGATTCGCTTGACGCTGCTG”, for which the binding signal with GST-Ap-NF-kB RHD was 1.13 z-score; with GST-Dm-Relish, 0.438 z-score.
On the same counts, the results for “CCGATTAACATCAAACAACCCCCTGATGTTAATCGGGTCTTGATTCGCTTGACGCTGCTG” are 5.66 z-score and 5.24 z-score.
“CCGATTAACATCAAAAAATACCCTGATGTTAATCGGGTCTTGATTCGCTTGACGCTGCTG”: the figures for the binding signal in the assay with GST-Ap-NF-kB RHD and in the assay with GST-Dm-Relish were 6.17 z-score and 8.93 z-score, respectively.
“CCGATTAACATCAAAGCATTCCCTGATGTTAATCGGGTCTTGATTCGCTTGACGCTGCTG”: the values for the binding signal with GST-Ap-NF-kB RHD and with GST-Dm-Relish were 2.32 z-score and 0.807 z-score, respectively.
“CCGATTAACATCAATCCCCACATTGATGTTAATCGGGTCTTGATTCGCTTGACGCTGCTG”: the figures for the binding signal with GST-Ap-NF-kB RHD and with GST-Dm-Relish were 3.58 z-score and 2.63 z-score, respectively.
On the same counts, the results for “CCGATTAACATCAACTCGGGAAATGATGTTAATCGGGTCTTGATTCGCTTGACGCTGCTG” are 1.08 z-score and 0.696 z-score.
For “CCGATTAACATCAGGGAATCACATGATGTTAATCGGGTCTTGATTCGCTTGACGCTGCTG”, the binding signal worked out at 1.95 z-score in the assay with GST-Ap-NF-kB RHD and 9.15 z-score with GST-Dm-Relish.
On to “CCGATTAACATCAGGCTTTCCCCTGATGTTAATCGGGTCTTGATTCGCTTGACGCTGCTG”, for which the figures for the binding signal in the assay with GST-Ap-NF-kB RHD and with GST-Dm-Relish were 6.49 z-score and 7.38 z-score, respectively.
Take “CCGATTAACATCAGGGGGATCCATGATGTTAATCGGGTCTTGATTCGCTTGACGCTGCTG”: the binding signal with GST-Ap-NF-kB RHD is 7.42 z-score; in the assay with GST-Dm-Relish, 7.45 z-score.
Regarding “CCGATTAACATCACCATGGGAAATGATGTTAATCGGGTCTTGATTCGCTTGACGCTGCTG”, the binding signal with GST-Ap-NF-kB RHD amounted to 1.25 z-score; in the assay with GST-Dm-Relish, 0.699 z-score.
With “CCGATTAACATCAAAATCCCCCCTGATGTTAATCGGGTCTTGATTCGCTTGACGCTGCTG”, the binding signal was found to be 10.4 z-score with GST-Ap-NF-kB RHD and 9.53 z-score with GST-Dm-Relish.
As for “CCGATTAACATCAAAACTTCCCATGATGTTAATCGGGTCTTGATTCGCTTGACGCTGCTG”, the binding signal with GST-Ap-NF-kB RHD stood at 3.04 z-score; in the assay with GST-Dm-Relish it was 4.52 z-score.
Take “CCGATTAACATCACGTACTTCCCTGATGTTAATCGGGTCTTGATTCGCTTGACGCTGCTG”: the binding signal with GST-Ap-NF-kB RHD is 1.66 z-score; with GST-Dm-Relish, 7.92 z-score.
For “CCGATTAACATCATGTTAGGGAATGATGTTAATCGGGTCTTGATTCGCTTGACGCTGCTG” the same measures were 1.38 z-score and 0.983 z-score.
For “CCGATTAACATCATGGAGGGAGGTGATGTTAATCGGGTCTTGATTCGCTTGACGCTGCTG”, the binding signal with GST-Ap-NF-kB RHD was 1.29 z-score; with GST-Dm-Relish, 0.416 z-score.
For “CCGATTAACATCAAGAATTCCCGTGATGTTAATCGGGTCTTGATTCGCTTGACGCTGCTG”, the binding signal is 4.85 z-score with GST-Ap-NF-kB RHD and 4.9 z-score in the assay with GST-Dm-Relish.
Turning to “CCGATTAACATCAGGGGAGATAATGATGTTAATCGGGTCTTGATTCGCTTGACGCTGCTG”, the results for the binding signal in the assay with GST-Ap-NF-kB RHD and with GST-Dm-Relish were 5.17 z-score and 1.79 z-score, respectively.
Consider “CCGATTAACATCAAGGGGGTACTTGATGTTAATCGGGTCTTGATTCGCTTGACGCTGCTG”, for which the binding signal in the assay with GST-Ap-NF-kB RHD stood at 4.81 z-score; with GST-Dm-Relish it was 2.88 z-score.
For “CCGATTAACATCAGGACGCCCCCTGATGTTAATCGGGTCTTGATTCGCTTGACGCTGCTG”, the binding signal is 6.15 z-score with GST-Ap-NF-kB RHD and 3.85 z-score with GST-Dm-Relish.
Consider “CCGATTAACATCAACTTTGGGAATGATGTTAATCGGGTCTTGATTCGCTTGACGCTGCTG”, for which the binding signal with GST-Ap-NF-kB RHD was found to be 0.544 z-score; in the assay with GST-Dm-Relish it was 0.661 z-score.
“CCGATTAACATCAGGGGATTCGATGATGTTAATCGGGTCTTGATTCGCTTGACGCTGCTG”: the binding signal is 5.58 z-score with GST-Ap-NF-kB RHD and 3.8 z-score with GST-Dm-Relish.
As for “CCGATTAACATCAAGGGATTTCCTGATGTTAATCGGGTCTTGATTCGCTTGACGCTGCTG”, the binding signal with GST-Ap-NF-kB RHD worked out at 5.46 z-score; in the assay with GST-Dm-Relish, 7.74 z-score.
For the sequence “CCGATTAACATCAGGGAGCCCCCTGATGTTAATCGGGTCTTGATTCGCTTGACGCTGCTG”, the values for the binding signal (in assay [1]; with GST-Co-NF-kB) were 4.79 z-score and 2.5 z-score, respectively.
For the sequence “CCGATTAACATCAGGGGAATGTATGATGTTAATCGGGTCTTGATTCGCTTGACGCTGCTG”, the binding signal in assay [1] is 7.74 z-score; with GST-Co-NF-kB it was 6.26 z-score.
For “CCGATTAACATCAGGACAGTCCCTGATGTTAATCGGGTCTTGATTCGCTTGACGCTGCTG”, the binding signal in assay [1] came to 5.23 z-score; with GST-Co-NF-kB, 0.841 z-score.
With “CCGATTAACATCAGGGTGGGAAATGATGTTAATCGGGTCTTGATTCGCTTGACGCTGCTG”, the figures for the binding signal (in assay [1]; with GST-Co-NF-kB) were 3.1 z-score and 3.37 z-score, respectively.
